Assay results reported in the antibiotic and cytotoxicity screens of Wong et al. (2023).
The other results are listed elsewhere or left out.

Tests used:
HSkMC = human skeletal muscle cells; assay: cytotoxicity call (relative viability < 0.9); conditions: 10 µM
HepG2 = assay: cytotoxicity call (relative viability < 0.9); conditions: 10 µM
S. aureus RN4220 = assay: growth inhibition call (relative growth <= 0.2); conditions: 50 µM

Row | Compound | cytotoxicity call (HSkMC) | cytotoxicity call (HepG2) | growth inhibition call (S. aureus RN4220)
1 | FC(F)(F)c1nc2ccccc2[nH]1 | inactive | inactive | inactive
2 | C[C@H]1CN([C@@H](C)CO)C(=O)c2cccc(NS(=O)(=O)c3ccc(Cl)cc3)c2O[C@@H]1CN(C)Cc1ccc(C(=O)Nc2ccccc2N)cc1 | inactive | inactive | inactive
3 | C[C@@H]1OC2=C(Cl)C(=O)N3CCC[C@H]3C[C@@]21O | inactive | inactive | inactive
4 | C[C@@H]1CN([C@H](C)CO)C(=O)c2cccc(NC(=O)Nc3ccc(C(F)(F)F)cc3)c2O[C@@H]1CN(C)C(=O)Nc1ccccc1 | active | active | inactive
5 | CO[C@H]1CCCNC1 | inactive | inactive | inactive
6 | Cc1ccc(S(=O)(=O)Nc2ccc3c(c2)C(=O)N([C@H](C)CO)C[C@@H](C)[C@@H](CN(C)S(=O)(=O)c2ccc(F)cc2)OCCCC[C@H](C)O3)cc1 | inactive | inactive | inactive
7 | CC(C)(C)[S@@](=O)N1Cc2cc(C(=O)NCc3ccc4c(c3)OCO4)nc(-c3cccc(-c4ccncc4)c3)c2[C@H]1CCO | inactive | inactive | inactive
8 | C[C@@H]1CCCCO[C@@H](CN(C)Cc2ccccc2)[C@@H](C)CN([C@H](C)CO)C(=O)c2cc(NC(=O)CCC(F)(F)F)ccc2O1 | inactive | inactive | inactive
9 | COc1ccc(S(=O)(=O)Nc2ccc3c(c2)C(=O)N([C@H](C)CO)C[C@@H](C)[C@@H](CN(C)Cc2ccc(C(F)(F)F)cc2)OCCCC[C@H](C)O3)cc1 | inactive | inactive | inactive
10 | C[C@H]1Cc2c(N)nn(C)c2NC1=O | inactive | inactive | inactive
